Source: paper PMC4336329 (PLoS ONE, 2015)
In all, about 310,000 compounds went through this assay and about 2,200 (0.71%) showed an effect of 50% or more. The effect is printed as a negative number. The list shows a part of the results.

biological target: human ether-à-go-go-related gene (hERG) potassium channel (human, UniProt Q12809); test: primary screen, population patch clamp on CHO cells stably expressing hERG
Sequence (Q12809 whole entry, looked up): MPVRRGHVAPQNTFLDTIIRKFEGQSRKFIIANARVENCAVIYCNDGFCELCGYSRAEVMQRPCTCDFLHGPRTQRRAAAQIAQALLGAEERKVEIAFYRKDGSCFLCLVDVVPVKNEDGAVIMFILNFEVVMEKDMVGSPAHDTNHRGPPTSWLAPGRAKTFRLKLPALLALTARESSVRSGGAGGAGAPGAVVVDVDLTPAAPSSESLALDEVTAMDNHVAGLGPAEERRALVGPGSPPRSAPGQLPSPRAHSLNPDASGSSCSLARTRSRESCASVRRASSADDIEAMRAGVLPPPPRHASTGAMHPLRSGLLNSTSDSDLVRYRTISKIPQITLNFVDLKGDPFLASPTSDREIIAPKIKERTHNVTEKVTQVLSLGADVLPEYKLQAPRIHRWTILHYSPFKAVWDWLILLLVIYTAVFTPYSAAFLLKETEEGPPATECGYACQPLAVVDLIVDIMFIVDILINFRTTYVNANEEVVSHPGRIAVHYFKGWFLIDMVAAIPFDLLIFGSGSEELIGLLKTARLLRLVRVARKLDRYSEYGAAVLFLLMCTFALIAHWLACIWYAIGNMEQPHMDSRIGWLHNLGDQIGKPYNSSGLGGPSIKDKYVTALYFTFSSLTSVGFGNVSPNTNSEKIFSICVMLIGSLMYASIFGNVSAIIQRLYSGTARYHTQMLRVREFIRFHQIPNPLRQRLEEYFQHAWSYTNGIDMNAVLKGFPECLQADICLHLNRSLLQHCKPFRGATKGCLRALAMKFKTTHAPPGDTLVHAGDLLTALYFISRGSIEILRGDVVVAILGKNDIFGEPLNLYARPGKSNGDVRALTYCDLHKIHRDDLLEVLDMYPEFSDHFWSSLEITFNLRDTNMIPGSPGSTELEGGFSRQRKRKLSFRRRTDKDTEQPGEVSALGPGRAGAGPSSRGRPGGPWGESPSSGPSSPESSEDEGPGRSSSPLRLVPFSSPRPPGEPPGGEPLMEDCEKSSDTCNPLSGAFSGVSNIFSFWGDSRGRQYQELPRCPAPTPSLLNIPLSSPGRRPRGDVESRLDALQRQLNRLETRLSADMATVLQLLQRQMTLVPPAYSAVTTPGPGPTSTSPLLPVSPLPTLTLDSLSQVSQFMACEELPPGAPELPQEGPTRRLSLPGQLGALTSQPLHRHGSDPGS

Row | SMILES | hERG current change (%, negative = inhibition) at 1uM [%]
1 | O=S(=O)(Nc1cccc(-c2ccc(N3CCCCCC3)nn2)c1)c1ccc(C(F)(F)F)cc1 | 15.1
2 | CCOc1ccccc1NC(=O)CCC(=O)Nc1ccc2nc(N3CCN(C)CC3)cc(C)c2c1 | 11.5
3 | Cc1cccc(-n2ncc3c2CCCC3NC(=O)C2CCOCC2)c1C (centres unmarked) | 14.1
4 | CC(C)CN(C(=O)COC(=O)COc1ccc2ccccc2c1)c1c(N)n(Cc2ccccc2)c(=O)[nH]c1=O | 6.3
5 | CC1CN(CCOCCSc2ccc(Cl)cc2)CC(C)O1.O=C(O)C(=O)O (centres unmarked) | 3.82
6 | Cc1cc(C)n2ncc(/C(N)=N/OC(=O)Nc3ccccc3)c2n1 | 7.5
7 | Cn1c(=O)c2c(nc(NC3CCCCC3)n2Cc2ccccc2)n(C)c1=O | 18.9
8 | NC(=O)C1CCN(C(=O)CN(C2CCCCC2)S(=O)(=O)c2ccc(F)cc2)CC1 | 10.9
9 | COc1cccc(N2CC(NS(=O)(=O)c3ccc4ccccc4c3)CC2=O)c1 (centres unmarked) | 7.14
10 | CC(C(=O)Nc1sccc1C(N)=O)N1C(=O)C2CC=CCC2C1=O (centres unmarked) | 7.06
11 | COc1ccc(-c2ccc(SCC(=O)N3CCOCC3)nn2)cc1 | 4.59
12 | Cc1cccc(C(=O)NNC(=O)c2ccccc2C)c1 | 5.64
13 | O=C(NCc1ccccn1)c1cn(Cc2ccccc2)nn1 | 8.87
14 | Cc1ccc(N2CC(C(=O)NC(C)CCc3ccccc3)CC2=O)cc1 (centres unmarked) | -5.2
15 | COc1cc(C(=O)CCN2CCC(c3ccccc3)C2)cc(OC)c1OC.Cl (centres unmarked) | -2.63
16 | Cc1ccc(C)c(NC(=O)COC(=O)c2cccc(S(=O)(=O)N3CCCCC3)c2)c1 | 4.61
17 | Cc1cc(C)c2c(C)nn(-c3ccccc3)c2n1 | 17.2
18 | Cc1ccc(C(=O)OCC(=O)NC2CCCCC2)s1 | 0.683
19 | O=C(NCc1ccccn1)c1ccc(NS(=O)(=O)c2cccc(Cl)c2)cc1 | 10.3

Row | SMILES | hERG current change (%, negative = inhibition) at 1uM [%]
20 | CCN1CCN(Cc2cc(C(C)(C)C)c(O)c(C(C)(C)C)c2)CC1 | 0.674
21 | O=S(=O)(NCc1ccc2c(c1)OCO2)c1cccc(F)c1 | 2.41
22 | O=C1c2ccccc2C(=O)c2c1cccc2N1CCN(C/C=C/c2ccccc2)CC1 | 8.23
23 | CC1CCC(NC(=O)C2COc3ccccc3O2)CC1 (centres unmarked) | 24.4
24 | COc1ccc(-c2nn(C)c(=O)c3ccccc23)cc1CNC(=O)c1ccco1 | -6.54
25 | Cc1nnc(NC(=O)C2CCCN(S(=O)(=O)Cc3ccccc3)C2)s1 (centres unmarked) | 0.612
26 | CCc1ccc(NC(=O)C2CCN(c3ncnc4c3nc3n4CCCCC3)CC2)cc1 | 2.6
27 | O=C(c1cc2ccccc2oc1=O)N(Cc1ccco1)C1CCS(=O)(=O)C1 (centres unmarked) | 12.3
28 | Cc1nonc1NC(=O)CSc1ccccn1 | 9.48
29 | O=C(NCc1ccccc1)C1CCCN(C(=O)NCc2ccccc2)C1 (centres unmarked) | 7.68
30 | Cc1cc(OCc2nn[nH]n2)c2c3c(c(=O)oc2c1)CCC3 | 8.06
31 | O=C(CCC(=O)OCCCC(F)(F)C(F)(F)F)Nc1ccc(Cl)cc1Cl | 7
32 | Cc1ccc(S(=O)(=O)N2CCCN(C)c3nc4ccccc4nc32)cc1 | 4.38
33 | Cc1ccccc1NC(=O)CCN1C(=O)CSC1=O | 12.4
34 | Cc1ccnc(SCCn2c(N3CCCCC3)nc3c2c(=O)n(C)c(=O)n3C)n1 | 4.67
35 | Cc1ccc(Oc2ncccc2CO)cc1 | 10.2
36 | Cc1ccc(NC(=O)c2ccc(N/N=C/c3cccc(O)c3)c([N+](=O)[O-])c2)cc1 | 16.6
37 | Cc1ccc(O)c(NC(=O)c2ccc3c(c2)C(=O)N(Cc2cccnc2)C3=O)c1 | 7.17
38 | CC(=O)Nc1ccc(NC(=O)C(C)OC(=O)C2CCC2)cc1 (centres unmarked) | 1.84

Row | SMILES | hERG current change (%, negative = inhibition) at 1uM [%]
39 | Cc1nc(N(CCO)C2CCCCC2)c2nnn(Cc3ccccc3)c2n1 | 14.2
40 | CCc1c(C)nc2ncnn2c1N1CCCC(C(=O)Nc2ccc(NC(C)=O)cc2)C1 (centres unmarked) | 16.9
41 | CCc1cc(=O)oc2cc(C)cc(OCC(=O)N3CCC(C(=O)O)(c4ccccc4)CC3)c12 | 8.76
42 | O=C(Nc1ccccc1)N(Cc1cccs1)C1CCCC1 | 12.2
43 | Cc1cc2n(c1)CCn1c(C)ccc1-2 | 12.2
44 | CC1=C(C(=O)OCc2ccccc2)C(c2ccc(C(C)(C)C)cc2)NC(=O)N1CCCCCC(=O)O (centres unmarked) | 7.11
45 | CCOc1cc(NC(=S)NCCCN2CCOCC2)c(OCC)cc1NC(=O)c1cccs1 | 15.2
46 | COc1ccc(S(=O)(=O)Nc2ccccc2C(=O)NCc2ccco2)cc1Br | 12.4
47 | O=C(c1cccnc1)N1CCN(C(=O)c2cccs2)CC1 | 17
48 | O=C(O)c1ccc(CN(Cc2ccccc2)S(=O)(=O)c2ccc(Cl)cc2)cc1 | 12.3
49 | COc1cc(C2=Nc3ccc(Br)cc3C(c3ccccc3)N2CC(=O)NN)cc(OC)c1OC (centres unmarked) | 4.38
50 | CC(C)(C)C(=O)N1CCN(c2ncccc2C(F)(F)F)CC1 | 15.1
51 | COc1ccc(N2CC(O)(c3ccc(OC(F)F)cc3)[N+]3=C2CCCC3)cc1.[Br-] (centres unmarked) | -22.4
52 | C=C1CCN(C(C)C(=O)O)S(=O)(=O)c2ccccc21 (centres unmarked) | 17.1
53 | COc1ccc(NC(=O)CCNS(=O)(=O)c2ccc(Br)s2)cc1 | -9.16
54 | CC(=O)Nc1ccc(NC(=O)COc2ncnc3ccccc23)cc1 | -6.16
55 | CCn1c(=O)cc(OCC(=O)NC2CCCCC2)c2ccccc21 | 25.1
56 | COCc1ccc(C(=O)Nc2ccccc2C(=O)NCc2cccnc2)cc1 | 16.1
